Here are results for 25 molecules from paper PMC4336329 (PLoS ONE, 2015).

Screen size: about 310,000 compounds; about 2,200 (0.71%) showed an effect of 50% or more. The effect is printed as a negative number. This is one part of the list.

The target in the assay is human ether-à-go-go-related gene (hERG) potassium channel (human, UniProt Q12809). Description: primary screen, population patch clamp on CHO cells stably expressing hERG.
Sequence of human ether-à-go-go-related gene (hERG) potassium channel (Q12809 whole entry, looked up): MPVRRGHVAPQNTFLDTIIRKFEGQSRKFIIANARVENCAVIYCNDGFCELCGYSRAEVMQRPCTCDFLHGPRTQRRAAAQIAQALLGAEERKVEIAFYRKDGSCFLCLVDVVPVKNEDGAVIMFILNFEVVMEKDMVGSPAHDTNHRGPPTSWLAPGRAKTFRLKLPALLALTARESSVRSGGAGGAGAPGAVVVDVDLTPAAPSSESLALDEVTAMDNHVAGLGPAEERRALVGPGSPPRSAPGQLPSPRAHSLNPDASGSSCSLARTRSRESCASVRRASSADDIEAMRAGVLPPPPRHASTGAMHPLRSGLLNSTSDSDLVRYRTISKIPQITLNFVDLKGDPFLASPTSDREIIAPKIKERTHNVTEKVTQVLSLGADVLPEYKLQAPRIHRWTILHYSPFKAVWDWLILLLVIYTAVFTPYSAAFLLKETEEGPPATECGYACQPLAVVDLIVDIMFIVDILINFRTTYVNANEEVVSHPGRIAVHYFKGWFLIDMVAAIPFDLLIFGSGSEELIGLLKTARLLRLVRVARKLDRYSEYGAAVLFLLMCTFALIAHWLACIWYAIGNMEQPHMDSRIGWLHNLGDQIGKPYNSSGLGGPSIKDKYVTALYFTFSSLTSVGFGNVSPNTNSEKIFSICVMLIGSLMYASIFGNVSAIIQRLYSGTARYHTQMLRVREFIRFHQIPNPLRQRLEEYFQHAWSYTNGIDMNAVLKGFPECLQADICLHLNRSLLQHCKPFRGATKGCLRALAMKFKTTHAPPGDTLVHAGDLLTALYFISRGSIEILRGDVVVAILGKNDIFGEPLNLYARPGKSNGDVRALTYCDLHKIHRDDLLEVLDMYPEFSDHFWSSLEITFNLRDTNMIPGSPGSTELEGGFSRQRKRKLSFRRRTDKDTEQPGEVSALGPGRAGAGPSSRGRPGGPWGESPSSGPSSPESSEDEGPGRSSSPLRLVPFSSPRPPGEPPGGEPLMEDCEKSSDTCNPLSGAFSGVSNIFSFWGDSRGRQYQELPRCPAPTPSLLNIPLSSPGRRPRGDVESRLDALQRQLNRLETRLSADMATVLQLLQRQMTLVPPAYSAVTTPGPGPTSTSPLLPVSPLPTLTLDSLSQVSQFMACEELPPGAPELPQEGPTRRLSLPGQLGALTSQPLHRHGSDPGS
As to `CC(=O)N/C(=C\c1ccccc1)C(=O)OCc1cc(C)ccc1C`, the “hERG current change (%, negative = inhibition) at 1uM” value is listed as -17.7%.

Take `Cc1cc(C)nc(/N=C(\N)Nc2ccc(S(=O)(=O)Nc3nc(C)cc(C)n3)cc2)n1.Cl`: the “hERG current change (%, negative = inhibition) at 1uM” value was found to be 3.6%.

For `Cc1nc2sc(C(c3ccco3)N3CC(C)OC(C)C3)c(O)n2n1` (stereo not shown), the “hERG current change (%, negative = inhibition) at 1uM” value is -0.598%.

Regarding `CCOC(=O)c1ccc(NC(=O)CSc2nc3c(c(=O)n2C)SC(C)C3)cc1` (stereo not shown), the “hERG current change (%, negative = inhibition) at 1uM” value was 6.66%.

For the molecule `COc1ccc(C2=NOC(C(=O)Nc3cccnc3)C2)cc1` (stereo not shown), the “hERG current change (%, negative = inhibition) at 1uM” value stood at 11.3%.

Consider `Cc1ccccc1NC(=O)CSc1nc2n(n1)CCCCC2`, for which the “hERG current change (%, negative = inhibition) at 1uM” value was determined as 13.5%.

Consider `CSCC[C@@H](C(=O)NCCCCCCCCCCC(=O)N1CCN(C(=O)OC(C)(C)C)CC1)n1cc(CCO)nn1`, for which the “hERG current change (%, negative = inhibition) at 1uM” value is reported as 10.6%.

`CCSc1ncc(CO)c(N)n1`: the “hERG current change (%, negative = inhibition) at 1uM” value is on record as 5.68%.

Regarding `CCC(C)c1ccc(S(=O)(=O)N2CCN3CCCC3C2)cc1` (stereo not shown), the “hERG current change (%, negative = inhibition) at 1uM” value is listed as 10.8%.

As to `CC(C)(C)NC(=O)CN1C(=O)/C(=C/c2ccccc2)SC1=S`, the “hERG current change (%, negative = inhibition) at 1uM” value is recorded as 4.79%.

In the case of `COc1ccc(CNC(=O)CS(=O)Cc2nc(-c3ccc(OC)c(OC)c3)oc2C)cc1` (stereo not shown), the “hERG current change (%, negative = inhibition) at 1uM” value worked out at 10.7%.

For the molecule `CCOC(=O)C1CCCCN1Cc1ccc(OC)c(OC)c1` (stereo not shown), the “hERG current change (%, negative = inhibition) at 1uM” value is on record as 10.9%.

In the case of `COC(=O)/C=C/c1ccc(OC(=O)OC)c(OC(=O)OC)c1`, the “hERG current change (%, negative = inhibition) at 1uM” value worked out at 11.6%.

Consider `COc1ccc(C2C(C(C)=O)=C(C)Nc3ncnn32)c(OC)c1OC` (stereo not shown), for which the “hERG current change (%, negative = inhibition) at 1uM” value was determined as 3.37%.

Turning to `COc1ccc(OC)c(NC(=O)C2CCC(CNc3c(N4CCOCC4)c(=O)c3=O)CC2)c1` (stereo not shown), the “hERG current change (%, negative = inhibition) at 1uM” value turned out to be 13.4%.

`CC(C)Cc1ccc(C(C)C(=O)OCC(=O)c2c[nH]c3ccccc23)cc1` (stereo not shown): the “hERG current change (%, negative = inhibition) at 1uM” value is on record as 15.1%.

Regarding `COC(=O)c1c(NC(=O)c2ccc(Br)o2)sc(C)c1C`, the “hERG current change (%, negative = inhibition) at 1uM” value came to 8.15%.

With `Cc1ccc(N2C(S)=C(C#N)C(=O)NC2c2cccs2)cc1` (stereo not shown), the “hERG current change (%, negative = inhibition) at 1uM” value is recorded as 8.78%.

On to `CN(C)CC(C)(C)CNS(=O)(=O)CC12CCC(CC1=O)C2(C)C` (stereo not shown), for which the “hERG current change (%, negative = inhibition) at 1uM” value is on record as 9.27%.

Turning to `Cc1c(NCc2cc(Cl)cc(Cl)c2O)c(=O)n(-c2ccccc2)n1C`, the “hERG current change (%, negative = inhibition) at 1uM” value is 9.66%.

With `COc1ccc(-c2c(C)nc3c(-c4ccsc4)cnn3c2N)cc1`, the “hERG current change (%, negative = inhibition) at 1uM” value is 7.64%.

For the molecule `COC(=O)C1ON2OC(C(=O)OC)C(C(=O)OC)C2C1CC(C)=O` (stereo not shown), the “hERG current change (%, negative = inhibition) at 1uM” value came to 16.6%.

Take `CC(=O)NCC(O)c1ccc([N+](=O)[O-])cc1` (stereo not shown): the “hERG current change (%, negative = inhibition) at 1uM” value amounted to 9.31%.

On to `O=C(COc1ccc(Cl)cc1)N1CCN(C2CCCC2)CC1.O=C(O)C(=O)O`, for which the “hERG current change (%, negative = inhibition) at 1uM” value was -68.4%.

For `C(#Cc1ccc2c(c1)COc1c3ccccc3nn1-2)c1ccccc1`, the “hERG current change (%, negative = inhibition) at 1uM” value is -5.1%.
